The source of these data is the supplement of paper PMC12217912.

First the molecules themselves.
B1: TEV protease; numbered along this chain (parent)
chain: MGESLFKGPRDYNPISSSICHLTNESDGHTTSLYGIGFGPFIITNKHLFRRNNGTLVVQSLHGVFKVKDTTTLQQHLVDGRDMIIIRMPKDFPPFPQKLKFREPQREERICLVTTNFQTKSMSSMVSDTSCTFPSGDGIFWKHWIQTKDGQCGSPLVSTRDGFIVGIHSASNFTNTNNYFTSVPKNFMELLTNQEAQQWVSGWRLNADSVLWGGHKVFMVKPEEPFQPVKEATQL

Some of the results follow. Sequences were assembled here from the parent chain. Inactive controls read about 0.05.

This assay covers variants of B1. Nature of the assay: raw area under fraction-flipped curve 0-4 h after induction (AUC4h, not background-subtracted), DNA-recorder readout of cleavage of the substrate (dimensionless); higher = more cleavage of the substrate by the protease variant. As to conditions: temperature: 34 °C; time window: 0-4 h after rhamnose induction. Here is the method: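 In vivo DNA recorder in E. coli TOP10(DE3) ΔrhaA at 34 °C. Each TEVp single-site mutant (parent TEVp 0) is paired with a single-site variant of the 7-mer TEVs (canonical ENLYFQ|S). The substrate sits between flexible linkers in a Bxb1-sfGFP-TEVs-SsrA fusion, so cleavage stabilises Bxb1 and speeds flipping of a recombination array, read by NGS. The value is the raw area under the fraction-flipped curve over 0-4 h after rhamnose induction (AUC4h), with ≥20 reads per time point. It is not background-subtracted; inactive controls average about 0.047.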
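Note: Bxb1 expression induced with 0.2% (w/v) L-rhamnose at OD600 near 0.5, cultures sampled hourly, flipped fraction per protease–substrate barcode pair counted by paired-end Illumina sequencing.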

As to MGESLFKGPRDYNPISSSICHLTNESDGHTTSLYGIGFGPFIITNKHLFRRNNGTLVVSSLHGVFKVKDTTTLQQHLVDGRDMIIIRMPKDFPPFPQKLKFREPQREERICLVTTNFQTKSMSSMVSDTSCTFPSGDGIFWKHWIQTKDGQCGSPLVSTRDGFIVGIHSASNFTNTNNYFTSVPKNFMELLTNQEAQQWVSGWRLNADSVLWGGHKVFMVKPEEPFQPVKEATQL [Q59S], the “area with substrate ENLYFAS” value is 0.0673, the “area with substrate ENLYFCS” value was 0.0646, the “area with substrate ENLYFFS” value is 0.0582 and the “area with substrate ENLYFHS” value came out at 0.0734. Also, the “area with substrate ENLYFKS” value was determined as 0.0618, the “area with substrate ENLYFLS” value came to 0.06, the “area with substrate ENLYFMS” value was found to be 0.0683 and the “area with substrate ENLYFPS” value stood at 0.068. For the same variant, the “area with substrate ENLYFSS” value is 0.0387, the “area with substrate ENLYFTS” value was determined as 0.0639, the “area with substrate ENLYFVS” value was determined as 0.0593 and the “area with substrate ENLYFWS” value stood at 0.0531.
Regarding MGESLFKGPRDYNPISSSICHLTNESDGHTTSLYGIGFGPFIITNKHLFRRNNGTLVVQSLHGVFKVKDTTTLQQHLVDGRDMMIIRMPKDFPPFPQKLKFREPQREERICLVTTNFQTKSMSSMVSDTSCTFPSGDGIFWKHWIQTKDGQCGSPLVSTRDGFIVGIHSASNFTNTNNYFTSVPKNFMELLTNQEAQQWVSGWRLNADSVLWGGHKVFMVKPEEPFQPVKEATQL [I84M], the “area with substrate ENLYFAS” value came to 0.0394, the “area with substrate ENLYFDS” value amounted to 0.0494, the “area with substrate ENLYFFS” value worked out at 0.0636 and the “area with substrate ENLYFIS” value was 0.0622. Also, the “area with substrate ENLYFLS” value was 0.0716, the “area with substrate ENLYFMS” value was 0.0595, the “area with substrate ENLYFNS” value is 0.0632 and the “area with substrate ENLYFPS” value turned out to be 0.065. Also, the “area with substrate ENLYFRS” value turned out to be 0.0493, the “area with substrate ENLYFVS” value came out at 0.0583 and the “area with substrate ENLYFYS” value amounted to 0.0608.
For MGESLFKGPADYNPISSSICHLTNESDGHTTSLYGIGFGPFIITNKHLFRRNNGTLVVQSLHGVFKVKDTTTLQQHLVDGRDMIIIRMPKDFPPFPQKLKFREPQREERICLVTTNFQTKSMSSMVSDTSCTFPSGDGIFWKHWIQTKDGQCGSPLVSTRDGFIVGIHSASNFTNTNNYFTSVPKNFMELLTNQEAQQWVSGWRLNADSVLWGGHKVFMVKPEEPFQPVKEATQL [R10A], the “area with substrate ENLYFAS” value is 0.0631, the “area with substrate ENLYFCS” value was 0.0609, the “area with substrate ENLYFDS” value turned out to be 0.0507 and the “area with substrate ENLYFES” value was 0.0567. The “area with substrate ENLYFFS” value was determined as 0.0683, the “area with substrate ENLYFIS” value was 0.0461, the “area with substrate ENLYFKS” value worked out at 0.0624 and the “area with substrate ENLYFMS” value was 0.0666. Besides, the “area with substrate ENLYFNS” value is 0.0582, the “area with substrate ENLYFPS” value was determined as 0.0558, the “area with substrate ENLYFRS” value was determined as 0.0429 and the “area with substrate ENLYFTS” value turned out to be 0.0565. Moreover, the “area with substrate ENLYFWS” value was 0.0449 and the “area with substrate ENLYFYS” value worked out at 0.0643.
For the variant MGESLFKGPRDYNPISSSICHLTNESDGHTTSLYGIGFGPFIITNKHLFRRNNGTLVVQSLHGVFKVKDTTTLQQHLVDGRDMIIIRMPKDFPPFPQKLKFREPQREERICLVTTNFQTKSMSSMVSDASCTFPSGDGIFWKHWIQTKDGQCGSPLVSTRDGFIVGIHSASNFTNTNNYFTSVPKNFMELLTNQEAQQWVSGWRLNADSVLWGGHKVFMVKPEEPFQPVKEATQL [T129A], the “area with substrate ENLYFAS” value was determined as 0.0678, the “area with substrate ENLYFES” value stood at 0.0632, the “area with substrate ENLYFFS” value was found to be 0.0568 and the “area with substrate ENLYFHS” value turned out to be 0.0571. Besides, the “area with substrate ENLYFIS” value is 0.0596, the “area with substrate ENLYFPS” value turned out to be 0.0549, the “area with substrate ENLYFRS” value turned out to be 0.055 and the “area with substrate ENLYFTS” value came to 0.0594. Moreover, the “area with substrate ENLYFWS” value was 0.0471 and the “area with substrate ENLYFYS” value came out at 0.072.
Take MGESLFKGPRDYNPISSSICHLTNESDGHTTSLYGIGFGPFIITNKHLFRRNNGTLVVQSLHGVFKVKDTTTLQQHLVDGRDMIIIRMPKDFPPFPQKLKFVEPQREERICLVTTNFQTKSMSSMVSDTSCTFPSGDGIFWKHWIQTKDGQCGSPLVSTRDGFIVGIHSASNFTNTNNYFTSVPKNFMELLTNQEAQQWVSGWRLNADSVLWGGHKVFMVKPEEPFQPVKEATQL [R102V]: the “area with substrate ENLYFAS” value turned out to be 0.0575, the “area with substrate ENLYFCS” value worked out at 0.0405, the “area with substrate ENLYFDS” value is 0.0398 and the “area with substrate ENLYFES” value came out at 0.063. The “area with substrate ENLYFGS” value amounted to 0.0525, the “area with substrate ENLYFHS” value worked out at 0.0311, the “area with substrate ENLYFIS” value came out at 0.047 and the “area with substrate ENLYFLS” value turned out to be 0.0443. In addition, the “area with substrate ENLYFMS” value is 0.0445, the “area with substrate ENLYFPS” value is 0.0521, the “area with substrate ENLYFRS” value came out at 0.0602 and the “area with substrate ENLYFSS” value turned out to be 0.0286. Also, the “area with substrate ENLYFTS” value was determined as 0.026, the “area with substrate ENLYFVS” value came out at 0.0458 and the “area with substrate ENLYFYS” value came to 0.0763.
Turning to MGESLFKGDRDYNPISSSICHLTNESDGHTTSLYGIGFGPFIITNKHLFRRNNGTLVVQSLHGVFKVKDTTTLQQHLVDGRDMIIIRMPKDFPPFPQKLKFREPQREERICLVTTNFQTKSMSSMVSDTSCTFPSGDGIFWKHWIQTKDGQCGSPLVSTRDGFIVGIHSASNFTNTNNYFTSVPKNFMELLTNQEAQQWVSGWRLNADSVLWGGHKVFMVKPEEPFQPVKEATQL [P9D], the “area with substrate ENLYFAS” value was 0.0589, the “area with substrate ENLYFCS” value was found to be 0.0498, the “area with substrate ENLYFDS” value was determined as 0.053 and the “area with substrate ENLYFES” value is 0.0592. In addition, the “area with substrate ENLYFFS” value stood at 0.0562, the “area with substrate ENLYFGS” value was 0.08, the “area with substrate ENLYFIS” value was 0.0601 and the “area with substrate ENLYFNS” value was 0.0646. The “area with substrate ENLYFPS” value was 0.0689.
For the variant MGESLFKGPRDYNPISSSICHLTNESDGHTTSLYGIGFGPFIITNKHLFRRNNGTLVVQSLHGVFKVKDTTTLQQHLVDGRDMINIRMPKDFPPFPQKLKFREPQREERICLVTTNFQTKSMSSMVSDTSCTFPSGDGIFWKHWIQTKDGQCGSPLVSTRDGFIVGIHSASNFTNTNNYFTSVPKNFMELLTNQEAQQWVSGWRLNADSVLWGGHKVFMVKPEEPFQPVKEATQL [I85N], the “area with substrate ENLYFAS” value turned out to be 0.0455, the “area with substrate ENLYFCS” value is 0.0519, the “area with substrate ENLYFDS” value was 0.0509 and the “area with substrate ENLYFES” value is 0.0452. Besides, the “area with substrate ENLYFFS” value was 0.0502, the “area with substrate ENLYFHS” value turned out to be 0.0464, the “area with substrate ENLYFIS” value stood at 0.0412 and the “area with substrate ENLYFKS” value amounted to 0.0491. For the same variant, the “area with substrate ENLYFLS” value was found to be 0.0446, the “area with substrate ENLYFMS” value amounted to 0.0483, the “area with substrate ENLYFPS” value worked out at 0.039 and the “area with substrate ENLYFRS” value was found to be 0.0335. The “area with substrate ENLYFSS” value was found to be 0.0467 and the “area with substrate ENLYFTS” value worked out at 0.043.
With MGESLFKGPRDYNPISSSICHLTNESDGHTTSLYGIGFGPFIITNKHLFRRNNGTLVVQSLHGVFKVKDTTTLQQHLVDGRDMIIIRMDKDFPPFPQKLKFREPQREERICLVTTNFQTKSMSSMVSDTSCTFPSGDGIFWKHWIQTKDGQCGSPLVSTRDGFIVGIHSASNFTNTNNYFTSVPKNFMELLTNQEAQQWVSGWRLNADSVLWGGHKVFMVKPEEPFQPVKEATQL [P89D], the “area with substrate ENLYFAS” value was 0.0474, the “area with substrate ENLYFHS” value is 0.0051, the “area with substrate ENLYFKS” value worked out at 0.0421 and the “area with substrate ENLYFPS” value came to 0.0509. In addition, the “area with substrate ENLYFTS” value worked out at 0.0613.
On to MGESLFKGPRDYNPISSSICHLTNEIDGHTTSLYGIGFGPFIITNKHLFRRNNGTLVVQSLHGVFKVKDTTTLQQHLVDGRDMIIIRMPKDFPPFPQKLKFREPQREERICLVTTNFQTKSMSSMVSDTSCTFPSGDGIFWKHWIQTKDGQCGSPLVSTRDGFIVGIHSASNFTNTNNYFTSVPKNFMELLTNQEAQQWVSGWRLNADSVLWGGHKVFMVKPEEPFQPVKEATQL [S26I], for which the “area with substrate ENLYFAS” value was found to be 0.0539, the “area with substrate ENLYFDS” value was 0.0517, the “area with substrate ENLYFFS” value amounted to 0.0675 and the “area with substrate ENLYFGS” value is 0.0542. The “area with substrate ENLYFLS” value was 0.0605, the “area with substrate ENLYFMS” value came out at 0.0554, the “area with substrate ENLYFPS” value was found to be 0.0643 and the “area with substrate ENLYFRS” value came to 0.0548. For the same variant, the “area with substrate ENLYFTS” value was determined as 0.0336, the “area with substrate ENLYFVS” value worked out at 0.0735 and the “area with substrate ENLYFWS” value amounted to 0.0589.
In the case of MGESLFKGPRDYNPISSSICHLTNESDGHTTSLYGIGFGPFIITNKHLFRRNNGTLVVQSLHGVFKVSDTTTLQQHLVDGRDMIIIRMPKDFPPFPQKLKFREPQREERICLVTTNFQTKSMSSMVSDTSCTFPSGDGIFWKHWIQTKDGQCGSPLVSTRDGFIVGIHSASNFTNTNNYFTSVPKNFMELLTNQEAQQWVSGWRLNADSVLWGGHKVFMVKPEEPFQPVKEATQL [K68S], the “area with substrate ENLYFAS” value was determined as 0.0556, the “area with substrate ENLYFCS” value was determined as 0.0568, the “area with substrate ENLYFDS” value was 0.057 and the “area with substrate ENLYFES” value was found to be 0.0743. The “area with substrate ENLYFIS” value turned out to be 0.0598, the “area with substrate ENLYFMS” value stood at 0.0661, the “area with substrate ENLYFNS” value turned out to be 0.0427 and the “area with substrate ENLYFPS” value was 0.0543. For the same variant, the “area with substrate ENLYFSS” value worked out at 0.0501, the “area with substrate ENLYFTS” value was found to be 0.0654 and the “area with substrate ENLYFVS” value stood at 0.0452.
